# In all, about 52,000 compounds went through this assay and about 4,300 (8.3%) were called active. Rule as the data show it: active = survival mostly below about 52% (no sharp cut-off); inactive = mostly above about 56%. Some of the results follow.
# Tested on: DeltatarO mutant
# Experiment: S. aureus survival, RN4220 and DeltatarO strains – OD600, teichoic acid synthesis inhibitors, primary screen (AID 463173)
# Conditions: S. aureus RN4220 wild type/DeltatarO growth, OD600, 18 h, hits give low values, screened at 18.75 µg/mL (by protocol)
row,SMILES,survival
1,Cc1ccc(NC(=O)CN2C(=O)COc3ccc(S(=O)(=O)NC4CCCC4)cc32)cc1Cl,inactive: 69%
2,Cc1cc(NC(=O)CSc2ncc(C(=O)Nc3ccc(Cl)cc3)c(=O)n2C)no1,inactive: 71%
3,CCOC(=O)C1CCN(C(=O)Cn2ncc3c4ccccc4n(Cc4ccc(F)cc4)c3c2=O)CC1,inactive: 78%
4,COc1ccc(S(=O)(=O)c2c(O)c3ccc(C(=O)NCc4ccc(Cl)cc4)cc3[nH]c2=O)cc1,inactive: 89%
5,Cc1csc2nc(COc3ccc(NC(=O)COc4ccccc4)cc3)cc(=O)n12,inactive: 104%
6,CCN(Cc1ccccc1)C(=O)Cn1c(=O)n(-c2cccc(C)c2)c(=O)c2c1c1cc(C)ccc1n2C,inactive: 78%
7,Cc1ccc2oc3c(c(=O)c2c1)C(c1ccc([N+](=O)[O-])cc1)N(CCCN1CCOCC1)C3=O (configuration not stated),inactive: 76%
8,COc1ccc(-c2nc(SCC(=O)Nc3ccc4c(c3)OCCO4)c(-c3ccc(F)cc3)[nH]2)cc1OC,inactive: 50%
9,Cc1ccc(CNC(=O)CN(c2cccc(C)c2C)S(=O)(=O)c2ccccc2)cc1,inactive: 73%
10,CCC(CC)C(=O)Nc1ccc2nc(SCC(=O)N3CCc4ccccc43)sc2c1,inactive: 109%
11,CCOc1ccc(C(=O)Nc2cccc(NC(=O)c3ccc(C(C)(C)C)cc3)c2)cc1Br,inactive: 81%
12,Cn1c2ccccc2c2cnn(CC(=O)N3CCN(c4cccc(C(F)(F)F)c4)CC3)c(=O)c21,inactive: 77%
13,O=C(CSc1nnnn1C1CCCC1)c1ccc2c(c1)OCCO2,active: 70%
14,Cc1cccc(N2CCN(S(=O)(=O)c3cc(Cl)ccc3Cl)CC2)c1C,inactive: 146%
15,CC(=O)c1cccc(NC(=O)C2CCCN(C(=O)c3cnn(-c4ccccc4)c3-n3cccc3)C2)c1 (configuration not stated),inactive: 96%
16,COc1ccc(NC(=O)CN2C(=O)C(c3ccc(C)cc3)=NC23CCCCCC3)cc1Cl,inactive: 96%
17,Cc1ccc(NC(=O)c2ccc(CNS(=O)(=O)c3ccc4c(c3)C(C)(C)C(=O)N4C)cc2)cc1,inactive: 90%
18,CN(C)CCNC(=O)C(=O)NCC(c1cccnc1)N1CCN(c2ccccc2)CC1 (configuration not stated),active: 54%
19,COc1cccc(-c2nc(SCC(=O)NCC3CCCO3)c(-c3ccc(Cl)cc3)[nH]2)c1 (configuration not stated),inactive: 63%
20,COc1ccc2c(c1)c(=O)c(S(=O)(=O)c1ccccc1)cn2CC(=O)Nc1ccc2c(c1)OCO2,inactive: 65%
21,CCCN(C(=O)Cn1ncc2c([nH]c3ccccc32)c1=O)c1ccc(F)cc1,inactive: 101%
22,CC(=O)c1cccc(NC(=O)CCCSc2nc(-c3ccco3)cc(C(F)(F)F)n2)c1,active: 31%

# From PubChem BioAssay AID463173 (ICCB-Longwood Screening Facility, Harvard Medical School, 2010)
